Test results reported in a collection of fitness landscapes (doi:10.1016/j.celrep.2020.107928).
In all, about 81,000 sequences were measured (“one-hybrid fitness for binding NBS DNA”: median about -0.1, highest 2% from about 0.36 on). The list shows a part of the results.

B1: Caulobacter ParB omega fusion; a variant is named by its letters at X, in order, B8GW30 (parent)
chain: MESVVVGEPGMSEGRRGLGRGLSALLGEVDAAPAQAPGEQLGGSREAPIEILQRNPDQPRRTFREEDLEDLSNSIREKGVLQPILVRPSPDTAGEYQIVAGERAWRAAQRAGLKTVPIMVRELDDLAVLEIGIIENVQRADLNVLEEALSYKVLMEKFERTQENIAQTIGKSXSHVANXMRLLXLPDEVQSYLVSGELTAXHARAIAAAADPVALAKQIIEGGLSVRETEALARKAPNLSAGKSKGGRPPRVKDTDTQALESDLSSVLGLDVSIDHRGSTGTLTITYATLEQLDDLCNRLTRGI

Variants of: B1
Assay: one-hybrid fitness for binding NBS DNA (the Noc-binding site; scaled: cognate 1, non-cognate 0); higher = stronger binding
Conditions: with NBS DNA site
Summary of the method: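 Caulobacter ParB libraries with four specificity codons randomised were screened by bacterial one-hybrid selection in the E. coli USO strain, using a HIS3 reporter whose site lies 19 bp from the promoter. Selection ran for 48 hours at 37°C on M9 lacking histidine, with 0.1 mM IPTG and 5 mM 3-AT. Plasmids were Illumina-sequenced before and after selection, three replicate libraries were pooled, and variants with under 10 reads were dropped. Fitness is the log change in each variant's read ratio to wild type, rescaled against the cognate and non-cognate sites.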

Variant | one-hybrid fitness for binding NBS DNA
NCHR | ≤ 0.2
AMPQ | ≤ 0.2
AHRY | ≤ 0.2
LIAD | ≤ 0.2
WRAT | ≤ 0.2
QKYY | ≤ 0.2
KWTY | ≤ 0.2
MPVG | ≤ 0.2
DLKV | ≤ 0.2
NPSA | ≤ 0.2
EEDN | ≤ 0.2
TYAE | ≤ 0.2
QLDG | ≤ 0.2
NRVA | ≤ 0.2
CAID | ≤ 0.2
FSDR | ≤ 0.2
STPL | ≤ 0.2
CVYY | ≤ 0.2
DPPF | ≤ 0.2
RGSK | ≤ 0.2
QSER | 0.285
QACK | ≤ 0.2
HINS | ≤ 0.2
PRAM | ≤ 0.2

Variant | one-hybrid fitness for binding NBS DNA
LRVS | ≤ 0.2
CSVN | ≤ 0.2
LVGR | ≤ 0.2
TSGT | ≤ 0.2
VPES | ≤ 0.2
AGGC | ≤ 0.2
FHEF | ≤ 0.2
PTAY | ≤ 0.2
SRTV | ≤ 0.2
KHQG | ≤ 0.2
DWHD | ≤ 0.2
LTQC | ≤ 0.2
QEAL | ≤ 0.2
EEAR | ≤ 0.2
YFAR | ≤ 0.2
KMHR | ≤ 0.2
PLLL | ≤ 0.2
MMKG | ≤ 0.2
LCTD | ≤ 0.2
GDGA | ≤ 0.2
KQER | ≤ 0.2
PAQR | ≤ 0.2
CLRL | ≤ 0.2
NPSV | ≤ 0.2

Variant | one-hybrid fitness for binding NBS DNA
QSKN | 0.359
LKDP | ≤ 0.2
DDYL | ≤ 0.2
SQWT | ≤ 0.2
QLPL | ≤ 0.2
NMGP | ≤ 0.2
ATVC | ≤ 0.2
TQCT | ≤ 0.2
SEAY | ≤ 0.2
CACR | ≤ 0.2
RDWS | ≤ 0.2
TRKC | ≤ 0.2
LTSL | ≤ 0.2
PLNL | ≤ 0.2
PSEN | ≤ 0.2
RQYT | 0.353
HSAS | ≤ 0.2
HAER | ≤ 0.2
KVGT | ≤ 0.2
VDCY | ≤ 0.2
GYSD | ≤ 0.2
WLIM | ≤ 0.2
TGHY | ≤ 0.2
YLKI | ≤ 0.2

Variant | one-hybrid fitness for binding NBS DNA
GALW | ≤ 0.2
EYSA | ≤ 0.2
DATM | ≤ 0.2
EPKR | ≤ 0.2
KQKV | ≤ 0.2
KRDS | 0.28
KLLG | ≤ 0.2
IFGG | ≤ 0.2
KSLI | ≤ 0.2
HTRS | ≤ 0.2
PVTR | ≤ 0.2
LSCV | ≤ 0.2
VSPN | ≤ 0.2
NNEC | ≤ 0.2
HTER | ≤ 0.2
KLRF | ≤ 0.2
KVIG | ≤ 0.2
CFVS | ≤ 0.2
PIQM | ≤ 0.2
EGPK | ≤ 0.2
CMSC | ≤ 0.2
TSNL | ≤ 0.2
IPSV | ≤ 0.2
MLYP | ≤ 0.2

Variant | one-hybrid fitness for binding NBS DNA
QYLW | ≤ 0.2
VTYY | ≤ 0.2
WFES | ≤ 0.2
VYDY | ≤ 0.2
LTQF | ≤ 0.2
LWAT | ≤ 0.2
RVDA | ≤ 0.2
PYCC | ≤ 0.2
RQKK | 0.237
VQQS | ≤ 0.2
GARM | ≤ 0.2
SAIS | ≤ 0.2
ASWL | ≤ 0.2
WFNN | ≤ 0.2
DTAC | ≤ 0.2
RFHK | ≤ 0.2
ELNR | ≤ 0.2
RVAY | ≤ 0.2
LVTY | ≤ 0.2
DYQR | ≤ 0.2
MRLA | ≤ 0.2
MFCN | ≤ 0.2
VTGC | ≤ 0.2
HMGG | ≤ 0.2

Variant | one-hybrid fitness for binding NBS DNA
QWNC | ≤ 0.2
RNAS | 0.221
CGAC | ≤ 0.2
PESR | ≤ 0.2
AEKL | ≤ 0.2
NASG | ≤ 0.2
HNHR | ≤ 0.2
ERIC | ≤ 0.2
TEHS | ≤ 0.2
TGIV | ≤ 0.2
NTCV | ≤ 0.2
RMFT | 0.261
ANTY | ≤ 0.2
TVAQ | ≤ 0.2
SMPG | ≤ 0.2
MQST | ≤ 0.2
GGGM | ≤ 0.2
VRNK | ≤ 0.2
AHPF | ≤ 0.2
DTSP | ≤ 0.2
HEVT | ≤ 0.2
CYGA | ≤ 0.2
DAGS | ≤ 0.2
AGEI | ≤ 0.2

Variant | one-hybrid fitness for binding NBS DNA
RHKG | ≤ 0.2
HCLT | ≤ 0.2
RMQP | ≤ 0.2
PFPT | ≤ 0.2
KEVP | ≤ 0.2
TTMV | ≤ 0.2
IAYS | ≤ 0.2
WALA | ≤ 0.2
PLKS | ≤ 0.2
AVNV | ≤ 0.2
QKKT | 0.774
DSSL | ≤ 0.2
VCIS | ≤ 0.2
LMCA | ≤ 0.2
SKAI | ≤ 0.2
LKEG | ≤ 0.2
SQHT | ≤ 0.2
AVQV | ≤ 0.2
LTDV | ≤ 0.2
KQKS | ≤ 0.2
QVSI | ≤ 0.2
SKTV | ≤ 0.2
KPLG | ≤ 0.2
HVNT | ≤ 0.2

Variant | one-hybrid fitness for binding NBS DNA
VRTH | ≤ 0.2
IDSK | ≤ 0.2
AMHF | ≤ 0.2
PTIS | ≤ 0.2
AGFF | ≤ 0.2
FTWC | ≤ 0.2
REPF | ≤ 0.2
RINK | ≤ 0.2
PSQV | ≤ 0.2
TVND | ≤ 0.2
LLKW | ≤ 0.2
QKED | ≤ 0.2
SCVF | ≤ 0.2
VHCP | ≤ 0.2
PTQK | ≤ 0.2
EHRT | ≤ 0.2
TCRI | ≤ 0.2
ETHM | ≤ 0.2
PVQG | ≤ 0.2
DHIS | ≤ 0.2
RILT | 0.258
QVNF | ≤ 0.2
EPWI | ≤ 0.2
LYLR | ≤ 0.2

Variant | one-hybrid fitness for binding NBS DNA
NYTC | ≤ 0.2
QVKM | 0.229
IYDF | ≤ 0.2
EPLH | ≤ 0.2
QNQE | ≤ 0.2
NCGW | ≤ 0.2
CVKD | ≤ 0.2
KFGV | ≤ 0.2
PSVL | ≤ 0.2
QSMP | ≤ 0.2
SCPA | ≤ 0.2
TEIF | ≤ 0.2
INDR | ≤ 0.2
SVAA | ≤ 0.2
YPSN | ≤ 0.2
HYRV | ≤ 0.2
CTGP | ≤ 0.2
RCQN | ≤ 0.2
NWLM | ≤ 0.2
MYPG | ≤ 0.2
RIGF | ≤ 0.2
MHGR | ≤ 0.2
YFPL | ≤ 0.2
YNPA | ≤ 0.2

Variant | one-hybrid fitness for binding NBS DNA
RQMR | 0.385
PVKY | ≤ 0.2
QQFV | ≤ 0.2
RANY | ≤ 0.2
GTII | ≤ 0.2
PLDL | ≤ 0.2
LHVR | ≤ 0.2
AHAC | ≤ 0.2
TGSG | ≤ 0.2
SATA | ≤ 0.2
KVGY | ≤ 0.2
WSMG | ≤ 0.2
SCTL | ≤ 0.2
AAIK | ≤ 0.2
QRHQ | 0.431
VAKT | ≤ 0.2
LSMG | ≤ 0.2
IVRG | ≤ 0.2
ACAR | ≤ 0.2
NPRV | ≤ 0.2
QQCV | ≤ 0.2
AIST | ≤ 0.2
NRMI | ≤ 0.2
ELFV | ≤ 0.2

Variant | one-hybrid fitness for binding NBS DNA
RAFH | ≤ 0.2
SWHQ | ≤ 0.2
VFQS | ≤ 0.2
NTNW | ≤ 0.2
CKLV | ≤ 0.2
GLAF | ≤ 0.2
LHMD | ≤ 0.2
NNVS | ≤ 0.2
VKWM | ≤ 0.2
LPTG | ≤ 0.2
PLEM | ≤ 0.2
TSIM | ≤ 0.2
QLEG | ≤ 0.2
PFNC | ≤ 0.2
RHEK | ≤ 0.2
YLET | ≤ 0.2
VRDE | ≤ 0.2
RCLN | ≤ 0.2
AQCV | ≤ 0.2
YLVD | ≤ 0.2
VKHT | ≤ 0.2
CRMA | ≤ 0.2
SPSP | ≤ 0.2
LPSV | ≤ 0.2

Variant | one-hybrid fitness for binding NBS DNA
VIHS | ≤ 0.2
QIWG | ≤ 0.2
YTLS | ≤ 0.2
SDDR | ≤ 0.2
PSEL | ≤ 0.2
KPRK | ≤ 0.2
LVFC | ≤ 0.2
IAKR | 0.221
SIKA | ≤ 0.2
NSAV | ≤ 0.2
PKDT | ≤ 0.2
GRST | ≤ 0.2
TTGY | ≤ 0.2
EPSK | ≤ 0.2
HLHT | ≤ 0.2
TSYT | ≤ 0.2
STHG | ≤ 0.2
EETY | ≤ 0.2
LEPG | ≤ 0.2
HWAF | ≤ 0.2
IVSY | ≤ 0.2
GCKW | ≤ 0.2
PSFC | ≤ 0.2
YRMV | ≤ 0.2

Variant | one-hybrid fitness for binding NBS DNA
TATY | ≤ 0.2
VTYS | ≤ 0.2
FRLT | ≤ 0.2
PNRQ | ≤ 0.2
LRPM | ≤ 0.2
QHMI | ≤ 0.2
HDLT | ≤ 0.2
NFHS | ≤ 0.2
LKWY | ≤ 0.2
QHFY | ≤ 0.2
LFNF | ≤ 0.2
NGTF | ≤ 0.2
RERC | ≤ 0.2
HGVC | ≤ 0.2
RDMK | ≤ 0.2
RFGV | ≤ 0.2
CMTI | ≤ 0.2
EMIC | ≤ 0.2
